Publication PMC9911399, “Two distinct binding modes provide the RNA-binding protein RbFox with extraordinary sequence specificity”
Substitutions are numbered along the chain they refer to; changes in the protein carry UniProt numbers. The list shows a part of the results.

T1: RBFOX1 RRM RbFoxmut (Fox-RRM*) (Homo sapiens, UniProt Q9NWB1 109-208, R118D;E147R;N151S;E152T)
T1 sequence: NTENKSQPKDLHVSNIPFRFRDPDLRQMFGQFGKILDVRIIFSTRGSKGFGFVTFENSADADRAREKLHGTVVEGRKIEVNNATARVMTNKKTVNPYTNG

B1: CUGCGGA (DNA:RNA)
RNA: GGGAGACCGGAAUUCAGAUUGUCCCUGCGGAUUAAAUCCCGUCGUAGCCACCA
DNA 1: CAATCTGAATTCCGGTCTCCC
DNA 2: TGGTGGCTACGACGGGATT
B2: CCUCUAU (DNA:RNA)
RNA: B1 RNA with U26C, G27U, G29U, G30A, A31U
DNA 1: CAATCTGAATTCCGGTCTCCC
DNA 2: TGGTGGCTACGACGGGATT
B3: AGUGCGG (DNA:RNA)
RNA: B1 RNA with C25A, U26G, G27U, C28G, G29C, A31G
DNA 1: CAATCTGAATTCCGGTCTCCC
DNA 2: TGGTGGCTACGACGGGATT
B4: ACCGGUC (DNA:RNA)
RNA: B1 RNA with C25A, U26C, G27C, C28G, G30U, A31C
DNA 1: CAATCTGAATTCCGGTCTCCC
DNA 2: TGGTGGCTACGACGGGATT
B5: UGUAGUC (DNA:RNA)
RNA: B1 RNA with C25U, U26G, G27U, C28A, G30U, A31C
DNA 1: CAATCTGAATTCCGGTCTCCC
DNA 2: TGGTGGCTACGACGGGATT
B6: ACCAAUG (DNA:RNA)
RNA: GGGAGACCGGAAUUCAGAUUGUCCACCAAUGUUAAAUCCCGUCGUAGCCACCA
DNA 1: CAATCTGAATTCCGGTCTCCC
DNA 2: TGGTGGCTACGACGGGATT
B7: CACGACC (DNA:RNA)
RNA: B6 RNA with A25C, C26A, A28G, U30C, G31C
DNA 1: CAATCTGAATTCCGGTCTCCC
DNA 2: TGGTGGCTACGACGGGATT
B8: UUAAUAG (DNA:RNA)
RNA: B6 RNA with A25U, C26U, C27A, A29U, U30A
DNA 1: CAATCTGAATTCCGGTCTCCC
DNA 2: TGGTGGCTACGACGGGATT
B9: ACCUUAU (DNA:RNA)
RNA: B6 RNA with A28U, A29U, U30A, G31U
DNA 1: CAATCTGAATTCCGGTCTCCC
DNA 2: TGGTGGCTACGACGGGATT
B10: CCGGCGU (DNA:RNA)
RNA: B1 RNA with U26C, C28G, G29C, A31U
DNA 1: CAATCTGAATTCCGGTCTCCC
DNA 2: TGGTGGCTACGACGGGATT
B11: CGUACCU (DNA:RNA)
RNA: B6 RNA with A25C, C26G, C27U, A29C, U30C, G31U
DNA 1: CAATCTGAATTCCGGTCTCCC
DNA 2: TGGTGGCTACGACGGGATT
B12: AUAAGCG (DNA:RNA)
RNA: B6 RNA with C26U, C27A, A29G, U30C
DNA 1: CAATCTGAATTCCGGTCTCCC
DNA 2: TGGTGGCTACGACGGGATT
B13: UAGUCCA (DNA:RNA)
RNA: B1 RNA with C25U, U26A, C28U, G29C, G30C
DNA 1: CAATCTGAATTCCGGTCTCCC
DNA 2: TGGTGGCTACGACGGGATT
B14: UGUACCG (DNA:RNA)
RNA: B6 RNA with A25U, C26G, C27U, A29C, U30C
DNA 1: CAATCTGAATTCCGGTCTCCC
DNA 2: TGGTGGCTACGACGGGATT
B15: GAUACUC (DNA:RNA)
RNA: B6 RNA with A25G, C26A, C27U, A29C, G31C
DNA 1: CAATCTGAATTCCGGTCTCCC
DNA 2: TGGTGGCTACGACGGGATT
B16: CCGGAGC (DNA:RNA)
RNA: B1 RNA with U26C, C28G, G29A, A31C
DNA 1: CAATCTGAATTCCGGTCTCCC
DNA 2: TGGTGGCTACGACGGGATT
B17: GGGUCAG (DNA:RNA)
RNA: B6 RNA with A25G, C26G, C27G, A28U, A29C, U30A
DNA 1: CAATCTGAATTCCGGTCTCCC
DNA 2: TGGTGGCTACGACGGGATT
B18: CAGCCAA (DNA:RNA)
RNA: B1 RNA with U26A, G29C, G30A
DNA 1: CAATCTGAATTCCGGTCTCCC
DNA 2: TGGTGGCTACGACGGGATT
B19: AAUCAUC (DNA:RNA)
RNA: B6 RNA with C26A, C27U, A28C, G31C
DNA 1: CAATCTGAATTCCGGTCTCCC
DNA 2: TGGTGGCTACGACGGGATT
B20: ACUCCCA (DNA:RNA)
RNA: B6 RNA with C27U, A28C, A29C, U30C, G31A
DNA 1: CAATCTGAATTCCGGTCTCCC
DNA 2: TGGTGGCTACGACGGGATT
B21: ACUAGGC (DNA:RNA)
RNA: B6 RNA with C27U, A29G, U30G, G31C
DNA 1: CAATCTGAATTCCGGTCTCCC
DNA 2: TGGTGGCTACGACGGGATT
B22: CUCCUAG (DNA:RNA)
RNA: B1 RNA with G27C, G29U, G30A, A31G
DNA 1: CAATCTGAATTCCGGTCTCCC
DNA 2: TGGTGGCTACGACGGGATT
B23: GCUCCUU (DNA:RNA)
RNA: B6 RNA with A25G, C27U, A28C, A29C, G31U
DNA 1: CAATCTGAATTCCGGTCTCCC
DNA 2: TGGTGGCTACGACGGGATT
B24: CGGCGCC (DNA:RNA)
RNA: B1 RNA with U26G, G30C, A31C
DNA 1: CAATCTGAATTCCGGTCTCCC
DNA 2: TGGTGGCTACGACGGGATT
B25: CACUCAA (DNA:RNA)
RNA: B1 RNA with U26A, G27C, C28U, G29C, G30A
DNA 1: CAATCTGAATTCCGGTCTCCC
DNA 2: TGGTGGCTACGACGGGATT
B26: GGCACAU (DNA:RNA)
RNA: B6 RNA with A25G, C26G, A29C, U30A, G31U
DNA 1: CAATCTGAATTCCGGTCTCCC
DNA 2: TGGTGGCTACGACGGGATT
B27: GAUGUCA (DNA:RNA)
RNA: B1 RNA with C25G, U26A, G27U, C28G, G29U, G30C
DNA 1: CAATCTGAATTCCGGTCTCCC
DNA 2: TGGTGGCTACGACGGGATT
B28: CGCAUCG (DNA:RNA)
RNA: B6 RNA with A25C, C26G, A29U, U30C
DNA 1: CAATCTGAATTCCGGTCTCCC
DNA 2: TGGTGGCTACGACGGGATT
B29: CACUUUC (DNA:RNA)
RNA: B6 RNA with A25C, C26A, A28U, A29U, G31C
DNA 1: CAATCTGAATTCCGGTCTCCC
DNA 2: TGGTGGCTACGACGGGATT
B30: GGUUUGU (DNA:RNA)
RNA: B1 RNA with C25G, U26G, G27U, C28U, G29U, A31U
DNA 1: CAATCTGAATTCCGGTCTCCC
DNA 2: TGGTGGCTACGACGGGATT
B31: GAGAGGU (DNA:RNA)
RNA: B1 RNA with C25G, U26A, C28A, A31U
DNA 1: CAATCTGAATTCCGGTCTCCC
DNA 2: TGGTGGCTACGACGGGATT

These binders were tested against T1, RBFOX1 RRM RbFoxmut (Fox-RRM*) (assay: EMSA; HiTS-Eq, 1 nM pool, 10 min; buffer printed only for the single-RNA assays: 10 mM Tris pH 7.5, 150 mM NaCl, 3.4 mM EDTA, 0.001% NP-40, 30 C). Details: tags: His6 N-terminal (pET28a); label: 5' 32P.
Procedure, shortened: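 A pool of RNA with 7 randomized nucleotides, 5′-radiolabelled and with DNA-annealed flanks, was equilibrated at 1 nM for 10 min in 50 µL with purified RbFox RRM, wild type or mutant, across increasing protein concentrations. Free RNA was separated by 8% native PAGE, excised, reverse-transcribed, barcoded by PCR and sequenced. Relative association constants were obtained from read-count changes of each RNA species versus the control reaction and normalised to the cognate motif.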

Binder	binding signal
B1	0.126 KA relative to UGCAUGU
B2	0.114 KA relative to UGCAUGU
B3	0.107 KA relative to UGCAUGU
B4	0.103 KA relative to UGCAUGU
B5	0.178 KA relative to UGCAUGU
B6	0.109 KA relative to UGCAUGU
B7	0.0654 KA relative to UGCAUGU
B8	0.0804 KA relative to UGCAUGU
B9	0.134 KA relative to UGCAUGU
B10	0.125 KA relative to UGCAUGU
B11	0.099 KA relative to UGCAUGU
B12	0.126 KA relative to UGCAUGU
B13	0.107 KA relative to UGCAUGU
B14	0.148 KA relative to UGCAUGU
B15	0.0549 KA relative to UGCAUGU
B16	0.11 KA relative to UGCAUGU

Binder	binding signal
B17	0.132 KA relative to UGCAUGU
B18	0.0742 KA relative to UGCAUGU
B19	0.0672 KA relative to UGCAUGU
B20	0.0566 KA relative to UGCAUGU
B21	0.119 KA relative to UGCAUGU
B22	0.0819 KA relative to UGCAUGU
B23	0.0523 KA relative to UGCAUGU
B24	0.127 KA relative to UGCAUGU
B25	0.0932 KA relative to UGCAUGU
B26	0.0654 KA relative to UGCAUGU
B27	0.112 KA relative to UGCAUGU
B28	0.625 KA relative to UGCAUGU
B29	0.048 KA relative to UGCAUGU
B30	0.366 KA relative to UGCAUGU
B31	0.0899 KA relative to UGCAUGU
